# According to the supplement of paper PMC8728848:
# The other results are listed elsewhere or left out.
# B1: AAL (Aleuria aurantia) (protein)
# chain: MPTEFLYTSKIAAISWAATGGRQQRVYFQDLNGKIREAQRGGDNPWTGGSSQNVIGEAKLFSPLAAVTWKSAQGIQIRVYCVNKDNILSEFVYDGSKWITGQLGSVGVKVGSNSKLAALQWGGSESAPPNIRVYYQKSNGSGSSIHEYVWSGKWTAGASFGSTVPGTGIGATAIGPGRLRIYYQATDNKIREHCWDSNSWYVGGFSASASAGVSIAAISWGSTPQIRVYWQKGREELYEAAYGGSWNTPGQIKDASRPTPSLPDTFIAANSSGNIDISVFFQASGVSLQQWQWISGKGWSIGAVVPTGTPAGW
# Legend:
# Experiment in all cases: glycan array binding signal (z-score within array); higher = stronger binding
# Details in all cases: glycan notation: IUPAC condensed, linker removed; mutation: N224Q
# [1] = target: Fuc(a1-2)Gal
# Procedure, shortened: (§1)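 Arrays were curated from the Consortium for Functional Glycomics database, 3228 in total, and kept only where the protein sequence was available. Binding is expressed as a within-array Z-score. This score was averaged across arrays of the same protein sequence at different concentrations or buffers and across linkers, and negative values can be read as non-binding.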
# [2] = target: Fuc(a1-2)Gal(b1-3)GalNAc
# Procedure, shortened: as §1
# [3] = target: Fuc(a1-2)Gal(b1-3)GalNAc(a1-3)[Fuc(a1-2)]Gal(b1-4)Glc
# Procedure, shortened: as §1
# [4] = target: Fuc(a1-2)Gal(b1-3)GalNAc(a1-3)[Fuc(a1-2)]Gal(b1-4)GlcNAc
# Procedure, shortened: as §1
# [5] = target: Fuc(a1-2)Gal(b1-3)GalNAc(b1-3)Gal
# Procedure, shortened: as §1
# [6] = target: Fuc(a1-2)Gal(b1-3)GalNAc(b1-3)Gal(a1-4)Gal(b1-4)Glc
# Procedure, shortened: as §1
# [7] = target: Fuc(a1-2)Gal(b1-3)GalNAc(b1-4)[Neu5Ac(a2-3)]Gal(b1-4)Glc
# Procedure, shortened: as §1
# [8] = target: Fuc(a1-2)Gal(b1-3)GlcNAc
# Procedure, shortened: as §1
# [9] = target: Fuc(a1-2)Gal(b1-3)GlcNAc(b1-2)Man(a1-3)[Fuc(a1-2)Gal(b1-3)GlcNAc(b1-2)Man(a1-6)]Man(b1-4)GlcNAc(b1-4)GlcNAc
# Procedure, shortened: as §1
# [10] = target: Fuc(a1-2)Gal(b1-3)GlcNAc(b1-2)Man(a1-3)[Fuc(a1-2)Gal(b1-3)GlcNAc(b1-2)Man(a1-6)]Man(b1-4)GlcNAc(b1-4)[Fuc(a1-6)]GlcNAc
# Procedure, shortened: as §1
# [11] = target: Fuc(a1-2)Gal(b1-3)GlcNAc(b1-3)Gal(b1-4)Glc
# Procedure, shortened: as §1
# [12] = target: Fuc(a1-2)Gal(b1-3)GlcNAc(b1-3)GalNAc
# Procedure, shortened: as §1
# [13] = target: Fuc(a1-2)Gal(b1-3)GlcNAc(b1-3)[Fuc(a1-2)Gal(b1-3)GlcNAc(b1-6)]GalNAc
# Procedure, shortened: as §1
# [14] = target: Fuc(a1-2)Gal(b1-3)GlcNAc(b1-3)[Gal(b1-4)GlcNAc(b1-6)]Gal(b1-4)Glc
# Procedure, shortened: as §1
# [15] = target: Fuc(a1-2)Gal(b1-3)GlcNAc(b1-3)[Neu5Ac(a2-6)Gal(b1-4)GlcNAc(b1-6)]Gal(b1-4)Glc
# Procedure, shortened: as §1
# [16] = target: Fuc(a1-2)Gal(b1-3)GlcNAc6S
# Procedure, shortened: as §1
# [17] = target: Fuc(a1-2)Gal(b1-3)[Fuc(a1-4)]GlcNAc
# Procedure, shortened: as §1
# [18] = target: Fuc(a1-2)Gal(b1-3)[Fuc(a1-4)]GlcNAc(b1-2)Man(a1-3)[Fuc(a1-2)Gal(b1-3)[Fuc(a1-4)]GlcNAc(b1-2)Man(a1-3)]Man(b1-4)GlcNAc(b1-4)GlcNAc
# Procedure, shortened: as §1
# [19] = target: Fuc(a1-2)Gal(b1-3)[Fuc(a1-4)]GlcNAc(b1-2)Man(a1-3)[Fuc(a1-2)Gal(b1-3)[Fuc(a1-4)]GlcNAc(b1-2)Man(a1-6)]Man(b1-4)GlcNAc(b1-4)[Fuc(a1-6)]GlcNAc(b1-4)[Fuc(a1-6)]GlcNAc
# Procedure, shortened: as §1
# [20] = target: Fuc(a1-2)Gal(b1-3)[Fuc(a1-4)]GlcNAc(b1-3)[Fuc(a1-3)[Gal(b1-4)]GlcNAc(b1-6)]Gal(b1-4)Glc
# Procedure, shortened: as §1
# [21] = target: Fuc(a1-2)Gal(b1-3)[Fuc(a1-4)]GlcNAc(b1-3)[Gal(b1-4)GlcNAc(b1-6)]Gal(b1-4)Glc
# Procedure, shortened: as §1
# [22] = target: Fuc(a1-2)Gal(b1-4)Fuc(a1-3)]GlcNAc(b1-2)Man(a1-3)[Fuc(a1-2)Gal(b1-4)[Fuc(a1-3)]GlcNAc(b1-2)Man(a1-6)]Man(b1-4)GlcNAc(b1-4)GlcNAc
# Procedure, shortened: as §1
# [23] = target: Fuc(a1-2)Gal(b1-4)Glc
# Procedure, shortened: as §1
# [24] = target: Fuc(a1-2)Gal(b1-4)Glc6S
# Procedure, shortened: as §1
# [25] = target: Fuc(a1-2)Gal(b1-4)GlcNAc
# Procedure, shortened: as §1
# [26] = target: Fuc(a1-2)Gal(b1-4)GlcNAc(b1-2)Man
# Procedure, shortened: as §1
# [27] = target: Fuc(a1-2)Gal(b1-4)GlcNAc(b1-2)Man(a1-3)[Fuc(a1-2)Gal(b1-4)GlcNAc(b1-2)Man(a1-6)]Man(b1-4)GlcNAc(b1-4)GlcNAc
# Procedure, shortened: as §1
# [28] = target: Fuc(a1-2)Gal(b1-4)GlcNAc(b1-2)Man(a1-3)[Fuc(a1-2)Gal(b1-4)GlcNAc(b1-2)Man(a1-6)]Man(b1-4)GlcNAc(b1-4)[Fuc(a1-6)]GlcNAc
# Procedure, shortened: as §1
# [29] = target: Fuc(a1-2)Gal(b1-4)GlcNAc(b1-2)[Fuc(a1-2)Gal(b1-4)GlcNAc(b1-4)]Man(a1-3)[Fuc(a1-2)Gal(b1-4)GlcNAc(b1-2)Man(a1-6)]Man(b1-4)GlcNAc(b1-4)GlcNAc
# Procedure, shortened: as §1
# [30] = target: Fuc(a1-2)Gal(b1-4)GlcNAc(b1-3)Gal(b1-4)GlcNAc
# Procedure, shortened: as §1
binder,measurement,setting,value
B1,glycan array binding signal (z-score),[1],4.67
same,glycan array binding signal (z-score),[2],-0.139
same,glycan array binding signal (z-score),[3],-0.239
same,glycan array binding signal (z-score),[4],-0.306
same,glycan array binding signal (z-score),[5],-0.308
same,glycan array binding signal (z-score),[6],-0.169
same,glycan array binding signal (z-score),[7],-0.318
same,glycan array binding signal (z-score),[8],0.012
same,glycan array binding signal (z-score),[9],-0.259
same,glycan array binding signal (z-score),[10],-0.196
same,glycan array binding signal (z-score),[11],0.122
same,glycan array binding signal (z-score),[12],-0.263
same,glycan array binding signal (z-score),[13],-0.285
same,glycan array binding signal (z-score),[14],-0.262
same,glycan array binding signal (z-score),[15],-0.314
same,glycan array binding signal (z-score),[16],-0.139
same,glycan array binding signal (z-score),[17],0.023
same,glycan array binding signal (z-score),[18],-0.241
same,glycan array binding signal (z-score),[19],0.006
same,glycan array binding signal (z-score),[20],-0.198
same,glycan array binding signal (z-score),[21],-0.298
same,glycan array binding signal (z-score),[22],-0.123
same,glycan array binding signal (z-score),[23],0.937
same,glycan array binding signal (z-score),[24],2.29
same,glycan array binding signal (z-score),[25],2.73
same,glycan array binding signal (z-score),[26],-0.281
same,glycan array binding signal (z-score),[27],1.43
same,glycan array binding signal (z-score),[28],0.577
same,glycan array binding signal (z-score),[29],0.404
same,glycan array binding signal (z-score),[30],1.39
